Results reported in patent US20180155450A1 (Sanofi, published 2018).

T1: recombinant human IL4 (human, UniProt P05112 25-153)
T1 construct: also called Antigen1
T1 sequence (looked up): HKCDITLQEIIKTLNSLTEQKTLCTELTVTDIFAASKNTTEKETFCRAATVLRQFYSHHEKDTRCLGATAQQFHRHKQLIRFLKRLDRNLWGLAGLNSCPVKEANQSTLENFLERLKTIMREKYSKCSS


Target: T1, recombinant human IL4
Assay: binding assay not named (Example 1)

| binding result | Binder |
| --- | --- |
| no binding | CODH-Ig anti-IL13 VH-(G4S)-anti-IL4 VH-CH1-Fc / anti-IL4 VL-(G4S)-anti-IL13 VL-CL (bispecific antibody, human IgG1, kappa, also called IL13(G4S)IL4CH1-Fc + IL4(G4S)IL13CL) heavy: EVQLKESGPGLVAPGGSLSITCTVSGFSLTDSSINWVRQPPGKGLEWLGMIWGDGRIDYADALKSRLSISKDSSKSQVFLEMTSLRTDDTATYYCARDGYFPYAMDFWGQGTSVTVSSGGGGSQVQLQQSGPELVKPGASVKISCKASGYSFTSYWIHWIKQRPGQGLEWIGMIDPSDGETRLNQRFQGRATLTVDESTSTAYMQLRSPTSEDSAVYYCTRLKEYGNYDSFYFDVWGAGTLVTVSS[letters of human IgG1 constant region not shown] light: DIQMTQSPASLSVSVGDTITLTCHASQNIDVWLSWFQQKPGNIPKLLIYKASNLHTGVPSRFSGSGSGTGFTLTISSLQPEDIATYYCQQAHSYPFTFGGGTKLEIKGGGGSDIVLTQSPASLAVSLGQRATISCRASESVDSYGQSYMHWYQQKAGQPPKLLIYLASNLESGVPARFSGSGSRTDFTLTIDPVQAEDAATYYCQQNAEDSRTFGGGTKLEIKRTVAAPSVFIFPPSDEQLKSGTASVVCLLNNFYPREAKVQWKVDNALQSGNSQESVTEQDSKDSTYSLSSTLTLSKADYEKHKVYACEVTHQGLSSPVTKSFNRGEC |
| no binding | CODH-Ig anti-IL13 VH-(G4S)-anti-IL4 VH-CH1-Fc / anti-IL4 VL-(G4S)2-anti-IL13 VL-CL (bispecific antibody, human IgG1, kappa, also called IL13(G4S)IL4CH1-Fc + IL4(G4S2)IL13CL) heavy: EVQLKESGPGLVAPGGSLSITCTVSGFSLTDSSINWVRQPPGKGLEWLGMIWGDGRIDYADALKSRLSISKDSSKSQVFLEMTSLRTDDTATYYCARDGYFPYAMDFWGQGTSVTVSSGGGGSQVQLQQSGPELVKPGASVKISCKASGYSFTSYWIHWIKQRPGQGLEWIGMIDPSDGETRLNQRFQGRATLTVDESTSTAYMQLRSPTSEDSAVYYCTRLKEYGNYDSFYFDVWGAGTLVTVSS[letters of human IgG1 constant region not shown] light: DIQMTQSPASLSVSVGDTITLTCHASQNIDVWLSWFQQKPGNIPKLLIYKASNLHTGVPSRFSGSGSGTGFTLTISSLQPEDIATYYCQQAHSYPFTFGGGTKLEIKGGGGSGGGGSDIVLTQSPASLAVSLGQRATISCRASESVDSYGQSYMHWYQQKAGQPPKLLIYLASNLESGVPARFSGSGSRTDFTLTIDPVQAEDAATYYCQQNAEDSRTFGGGTKLEIKRTVAAPSVFIFPPSDEQLKSGTASVVCLLNNFYPREAKVQWKVDNALQSGNSQESVTEQDSKDSTYSLSSTLTLSKADYEKHKVYACEVTHQGLSSPVTKSFNRGEC |
| no binding | CODH-Ig anti-IL13 VH-(G4S)2-anti-IL4 VH-CH1-Fc / anti-IL4 VL-(G4S)-anti-IL13 VL-CL (bispecific antibody, human IgG1, kappa, also called IL13(G4S2)IL4CH1-Fc + IL4(G4S)IL13CL) heavy: EVQLKESGPGLVAPGGSLSITCTVSGFSLTDSSINWVRQPPGKGLEWLGMIWGDGRIDYADALKSRLSISKDSSKSQVFLEMTSLRTDDTATYYCARDGYFPYAMDFWGQGTSVTVSSGGGGSGGGGSQVQLQQSGPELVKPGASVKISCKASGYSFTSYWIHWIKQRPGQGLEWIGMIDPSDGETRLNQRFQGRATLTVDESTSTAYMQLRSPTSEDSAVYYCTRLKEYGNYDSFYFDVWGAGTLVTVSS[letters of human IgG1 constant region not shown] light: DIQMTQSPASLSVSVGDTITLTCHASQNIDVWLSWFQQKPGNIPKLLIYKASNLHTGVPSRFSGSGSGTGFTLTISSLQPEDIATYYCQQAHSYPFTFGGGTKLEIKGGGGSDIVLTQSPASLAVSLGQRATISCRASESVDSYGQSYMHWYQQKAGQPPKLLIYLASNLESGVPARFSGSGSRTDFTLTIDPVQAEDAATYYCQQNAEDSRTFGGGTKLEIKRTVAAPSVFIFPPSDEQLKSGTASVVCLLNNFYPREAKVQWKVDNALQSGNSQESVTEQDSKDSTYSLSSTLTLSKADYEKHKVYACEVTHQGLSSPVTKSFNRGEC |
| no binding | CODH-Ig anti-IL13 VH-(G4S)2-anti-IL4 VH-CH1-Fc / anti-IL4 VL-(G4S)2-anti-IL13 VL-CL (bispecific antibody, human IgG1, kappa, also called IL13(G4S2)IL4CH1-Fc + IL4(G4S2)IL13CL) heavy: EVQLKESGPGLVAPGGSLSITCTVSGFSLTDSSINWVRQPPGKGLEWLGMIWGDGRIDYADALKSRLSISKDSSKSQVFLEMTSLRTDDTATYYCARDGYFPYAMDFWGQGTSVTVSSGGGGSGGGGSQVQLQQSGPELVKPGASVKISCKASGYSFTSYWIHWIKQRPGQGLEWIGMIDPSDGETRLNQRFQGRATLTVDESTSTAYMQLRSPTSEDSAVYYCTRLKEYGNYDSFYFDVWGAGTLVTVSS[letters of human IgG1 constant region not shown] light: DIQMTQSPASLSVSVGDTITLTCHASQNIDVWLSWFQQKPGNIPKLLIYKASNLHTGVPSRFSGSGSGTGFTLTISSLQPEDIATYYCQQAHSYPFTFGGGTKLEIKGGGGSGGGGSDIVLTQSPASLAVSLGQRATISCRASESVDSYGQSYMHWYQQKAGQPPKLLIYLASNLESGVPARFSGSGSRTDFTLTIDPVQAEDAATYYCQQNAEDSRTFGGGTKLEIKRTVAAPSVFIFPPSDEQLKSGTASVVCLLNNFYPREAKVQWKVDNALQSGNSQESVTEQDSKDSTYSLSSTLTLSKADYEKHKVYACEVTHQGLSSPVTKSFNRGEC |
